Source: US20100260668A1 (published 2010)

Experiments:
[1] = molecular target: T1, NRP1 (UniProt O14786 22-923, limits assumed); experiment: flow cytometry on cells carrying the target, 2 ug/mL; C-terminal VD
T1 construct: whole, on cells; also called neuropilin 1

[2] = molecular target: T1, NRP1; experiment: flow cytometry on cells carrying the target, 2 ug/mL; N-terminal VD

B1: DVD049 (bispecific antibody, human IgG1, kappa)
heavy: EVQLVESGGGLVQPGGSLRLSCAASGYTFTNYGMNWVRQAPGKGLEWVGWINTYTGEPTYAADFKRRFTFSLDTSKSTAYLQMNSLRAEDTAVYYCAKYPHYYGSSHWYFDVWGQGTLVTVSSASTKGPEVQLVESGGGLVQPGGSLRLSCAASGFSFSSEPISWVRQAPGKGLEWVSSITGKNGYTYYADSVKGRFTISADTSKNTAYLQMNSLRAEDTAVYYCARWGKKVYGMDVWGQGTLVTVSS[omitted - human IgG1 constant region]
light: DIQMTQSPSSLSASVGDRVTITCSASQDISNYLNWYQQKPGKAPKVLIYFTSSLHSGVPSRFSGSGSGTDFTLTISSLQPEDFATYYCQQYSTVPWTFGQGTKVEIKRTVAAPDIQMTQSPSSLSASVGDRVTITCRASQSISSYLAWYQQKPGKAPKLLIYGASSRASGVPSRFSGSGSGTDFTLTISSLQPEDFATYYCQQYMSVPITFGQGTKVEIKRTVAAPSVFIFPPSDEQLKSGTASVVCLLNNFYPREAKVQWKVDNALQSGNSQESVTEQDSKDSTYSLSSTLTLSKADYEKHKVYACEVTHQGLSSPVTKSFNRGEC
notes: DVD-Ig; also called VEGF and NRP1 DVD-Ig
FACS Geometric Mean C-terminal [1]: 352

B2: DVD050 (bispecific antibody, human IgG1, kappa)
heavy: EVQLVESGGGLVQPGGSLRLSCAASGFSFSSEPISWVRQAPGKGLEWVSSITGKNGYTYYADSVKGRFTISADTSKNTAYLQMNSLRAEDTAVYYCARWGKKVYGMDVWGQGTLVTVSSASTKGPEVQLVESGGGLVQPGGSLRLSCAASGYTFTNYGMNWVRQAPGKGLEWVGWINTYTGEPTYAADFKRRFTFSLDTSKSTAYLQMNSLRAEDTAVYYCAKYPHYYGSSHWYFDVWGQGTLVTVSS[omitted - human IgG1 constant region]
light: DIQMTQSPSSLSASVGDRVTITCRASQSISSYLAWYQQKPGKAPKLLIYGASSRASGVPSRFSGSGSGTDFTLTISSLQPEDFATYYCQQYMSVPITFGQGTKVEIKRTVAAPDIQMTQSPSSLSASVGDRVTITCSASQDISNYLNWYQQKPGKAPKVLIYFTSSLHSGVPSRFSGSGSGTDFTLTISSLQPEDFATYYCQQYSTVPWTFGQGTKVEIKRTVAAPSVFIFPPSDEQLKSGTASVVCLLNNFYPREAKVQWKVDNALQSGNSQESVTEQDSKDSTYSLSSTLTLSKADYEKHKVYACEVTHQGLSSPVTKSFNRGEC
notes: DVD-Ig; also called NRP1 and VEGF DVD-Ig
FACS Geometric Mean N-terminal [2]: 336
